Out of some 390,000 compounds screened, about 17,000 (4.4%) were called active. Inconclusive means that the source gave no clear call. Such entries were picked first, then a sample of the others. Calls come from the whole dose curve; as a rule, active = well fitted inhibition curve with a large enough effect; inconclusive = small, poorly fitted or top-dose-only effect; inactive = no such curve, though single readings can be large or run the other way. Potencies of inconclusive entries are doubtful fits and often do not repeat.
molecular target: Lysine-specific demethylase 4A (Homo sapiens) (UniProt O75164); test: qHTS Assay for Inhibitors of JMJD2A-Tudor Domain; settings: AlphaScreen JMJD2A-Tudor / H3K4me3 peptide binding; activity change, negative = inhibition: at 114 µM (top of the series); note: nearly all actives have a fitted effect of over 50% in size
Chain of UniProt O75164 (O75164 whole entry, looked up, the tested form may be a part): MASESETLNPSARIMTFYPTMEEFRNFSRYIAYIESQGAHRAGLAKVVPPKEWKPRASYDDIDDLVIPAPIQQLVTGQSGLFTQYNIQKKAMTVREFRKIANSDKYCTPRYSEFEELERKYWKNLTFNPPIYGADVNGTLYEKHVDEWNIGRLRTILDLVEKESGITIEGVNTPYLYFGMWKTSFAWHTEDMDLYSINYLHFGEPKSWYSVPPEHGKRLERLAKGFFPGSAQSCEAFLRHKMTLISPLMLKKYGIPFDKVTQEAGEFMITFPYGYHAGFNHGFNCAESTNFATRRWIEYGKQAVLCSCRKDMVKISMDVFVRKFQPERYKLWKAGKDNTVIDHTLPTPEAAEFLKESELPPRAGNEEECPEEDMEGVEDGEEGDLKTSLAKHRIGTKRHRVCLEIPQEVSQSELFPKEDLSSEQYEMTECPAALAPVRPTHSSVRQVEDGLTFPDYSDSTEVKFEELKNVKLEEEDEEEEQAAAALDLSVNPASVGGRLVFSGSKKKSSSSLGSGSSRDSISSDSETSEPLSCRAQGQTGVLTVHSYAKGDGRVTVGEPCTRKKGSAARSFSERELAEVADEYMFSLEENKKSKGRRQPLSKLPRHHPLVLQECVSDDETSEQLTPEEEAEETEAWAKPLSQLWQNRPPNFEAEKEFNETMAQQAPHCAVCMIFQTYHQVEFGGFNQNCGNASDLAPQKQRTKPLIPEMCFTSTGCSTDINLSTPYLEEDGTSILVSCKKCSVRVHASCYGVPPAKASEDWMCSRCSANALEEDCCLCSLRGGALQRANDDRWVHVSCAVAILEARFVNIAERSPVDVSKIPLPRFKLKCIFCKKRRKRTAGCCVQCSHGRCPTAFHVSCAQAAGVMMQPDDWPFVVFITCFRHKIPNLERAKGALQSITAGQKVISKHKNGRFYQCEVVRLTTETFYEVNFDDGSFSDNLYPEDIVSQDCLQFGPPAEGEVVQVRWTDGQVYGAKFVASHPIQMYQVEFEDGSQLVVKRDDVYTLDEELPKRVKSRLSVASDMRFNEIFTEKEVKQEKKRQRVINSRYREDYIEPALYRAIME
% is set by controls: 0 for no effect and ±100 for the full control effect; potency is the fitted concentration of half-maximal effect; tags give direction and shape of the fitted curve.

Row | Structure (SMILES) | Potency | activity change, negative = inhibition
1 | COc1ccc(NC(=O)CN2C(=O)COc3ccc(S(=O)(=O)NC4CCCC4)cc32)cc1OC | inactive | –
2 | CCCSc1ccc2nc(-c3ccccc3)cn2c1 | inconclusive: 63.1 µM [inhibitor, single point] | –
3 | C/C(=C\C(=O)c1ccc(C)o1)Nc1ccc2c(c1)OCO2 | inconclusive: 44.7 µM [inhibitor, partial curve] | –
4 | CCN(CC)S(=O)(=O)c1cccc(-c2n[nH]c(=S)n2Cc2ccccc2)c1 | inconclusive: 79.4 µM [inhibitor, single point] | –
5 | Cc1cccc(-n2c(O)c(C=Nc3ccc4c(c3)OCO4)c3ccccc3c2=O)n1 | inactive | –
6 | C/C(=N\Nc1nc(C(=O)O)cs1)c1ccccc1 | inconclusive: 39.8 µM [inhibitor, full curve, poor fit] | –
7 | Cc1ccc(OCc2nnc(SC3CCc4ccccc4C3=O)n2C)cc1 (configuration not stated) | active: 28.2 µM | –
8 | C=CCc1c(C)nc(C)nc1N/N=C/c1ccccc1O | inconclusive: 56.2 µM [inhibitor, partial curve, poor fit] | –
9 | COc1cc(/C=N/Nc2nc3ccccc3s2)cc([N+](=O)[O-])c1O | active: 39.8 µM | –
10 | c1ccc(-c2cc(-c3ccccc3)ncn2)cc1 | inactive | –
11 | COC(=O)c1ccc[n+](CC(=O)c2ccc(Br)cc2)c1 | inactive | –
12 | COc1cc2c3c(c1)C1(C(=O)N3C(C)(C)C=C2C)C(C#N)=C(N)Oc2cc(O)ccc21 (configuration not stated) | inconclusive: 44.7 µM [inhibitor, full curve] | –
13 | CCOC(=O)c1c(NC(=O)C2C3C=CC(C3)C2C(=O)O)sc2c1CC(C)(C)OC2 (configuration not stated) | inconclusive: 39.8 µM [inhibitor, partial curve] | –
14 | Cc1ccc([N+](=O)[O-])cc1-c1[nH]c(-c2ccc(O)c(O)c2)nc1-c1ccccc1 | active: 39.8 µM | –
15 | CC(C)CCN1CCC(CN2CCNC(=O)C2=O)CC1 | active: 89.1 µM | –
16 | Nc1nc2nn(-c3ccccc3)nc2c(=O)[nH]1 | inactive | –
17 | C=CCNCCOCCOc1ccc(C)cc1[N+](=O)[O-] | active: 3.16 µM | –
18 | O=C1Nc2ccccc2/C1=C\c1cccn1-c1ccc(OC(F)(F)F)cc1 | inconclusive: 12.6 µM [inhibitor, full curve] | –
19 | CC1CCN(c2ccc(C(=O)OCC(=O)NCCN3C(=O)CSC3=O)cc2[N+](=O)[O-])CC1 | inconclusive: 35.5 µM [inhibitor, partial curve] | –
20 | O=S1(=O)CCC(NC(=S)N2CCCCC2)C1 (configuration not stated) | inactive | –
21 | CCN(CC)S(=O)(=O)c1ccc(N/N=C(\C)c2ccc(OC)cc2O)nc1 | inconclusive: 44.7 µM [inhibitor, partial curve] | –
22 | CC(Oc1ccccc1)C(=O)Nc1nnc(S(=O)(=O)N(C)c2ccccc2)s1 (configuration not stated) | inactive | –
23 | O=C(O)c1ccccc1NCN1C(=O)C2CC=C(Cl)CC2C1=O (configuration not stated) | inactive | –
24 | O=C(O)c1nc(NCCc2ccccc2)ncc1Cl | inconclusive: 89.1 µM [inhibitor, partial curve] | –
25 | CC(=O)c1ccc(NC(=O)c2sc(-n3nc(C)c(Cc4ccc5c(c4)OCO5)c3C)nc2C)cc1 | active: 79.4 µM | –
26 | O=C(O)c1ccccc1C(=O)Nc1ccc(-c2csc(-c3ccccc3)n2)cc1 | inconclusive: 89.1 µM [inhibitor, single point] | –

Row | Structure (SMILES) | Potency | activity change, negative = inhibition
27 | S=C(c1ccc(-c2cccc(Cl)c2)o1)N1CCOCC1 | active: 50.1 µM | –
28 | O=C(Nc1nc(-c2ccccn2)cs1)c1cc2ccccc2o1 | active: 25.1 µM | –
29 | Cc1nn(CC(=O)O)c2ccccc12 | inconclusive: 100 µM [inhibitor, single point] | –
30 | CCCS(=O)(=O)Nc1cccc(-c2cn3ccsc3n2)c1 | inactive | –
31 | CCS(=O)(=O)c1ccc2oc(Nc3ccc(C(C)C)cc3)nc2c1 | inconclusive: 50.1 µM [inhibitor, partial curve] | –
32 | CCCCn1c(N)c(N(CCOC)C(=O)COC(=O)CCOc2ccccc2C)c(=O)[nH]c1=O | inactive | –
33 | Fc1cccc(NCCc2c[nH]c3ccccc23)n1 | inconclusive: 28.2 µM [inhibitor, partial curve] | –
34 | O=C(/C=C/c1ccncc1)c1ccc(NC(=O)c2ccccc2F)cc1 | active: 56.2 µM | –
35 | CCOC(=O)c1c(C)[nH]c(NC(=O)Nc2ccc(NC(C)=O)cc2)c1C | inactive | –
36 | CCOCCCNCc1cccc(OC)c1 | active: 3.55 µM | –
37 | Cc1nn(-c2ccccc2)c(N)c1C1(O)C(=O)N(C(C)C)c2ccccc21 (configuration not stated) | inconclusive: 100 µM [inhibitor, single point] | –
38 | C/C(=N/Nc1nc(-c2ccccc2)c(CC(=O)O)s1)c1ccccc1 | inconclusive: 44.7 µM [inhibitor, partial curve] | –
39 | Cc1ccc(SCc2nnc(N)s2)cc1 | inconclusive: 17.8 µM [inhibitor, partial curve] | –
40 | CC(C)CC(=O)Nc1ccc(C(=O)Cn2c(=O)oc3ccccc32)cc1 | inactive | –
41 | Cc1ccccc1C(OCCN(C(C)C)C(C)C)c1ccccc1 (configuration not stated) | active: 0.891 µM | –
42 | O=C1/C(=C\c2ccc(O)c(O)c2)SC(=S)N1Cc1ccccc1 | active: 2.24 µM | –
43 | COc1ccc(/C(C)=N/NC(=O)CNC(=O)/C=C\c2ccco2)cc1 | inconclusive: 20 µM [inhibitor, single point] | –
44 | Cc1nc2cc(N=NC3=C(O)CCCC3=O)ccc2s1 | – | inconclusive: -44.6% [inhibitor]
45 | Cc1cccc(C(=O)Oc2csc(=S)n2C(=O)c2cccc(C)c2)c1 | inconclusive: 89.1 µM [inhibitor, partial curve] | –
46 | O=S(=O)(Nc1ccc(-c2cn3c(n2)SCC3)cc1)c1ccccc1F | inconclusive: 63.1 µM [inhibitor, partial curve] | –
47 | Oc1ccc(-c2cnc3ccccc3n2)cc1 | inactive | –
48 | Cn1c(=O)c2c(SCC(=O)NCC3CCCO3)nc(-c3ccccc3Cl)nc2n(C)c1=O (configuration not stated) | inactive | –
49 | Cc1cccc(NC(=O)COC(=O)c2cccs2)c1C | inactive | –
50 | CNc1cccc2c1C(=O)c1ccccc1C2=O | active: 2.82 µM | –
51 | O=C(N/N=C/c1ccc(N2CCCCC2)o1)c1ccccc1[N+](=O)[O-] | inconclusive: 79.4 µM [inhibitor, single point] | –
52 | COc1ccc(NC(=O)C2CCCN2C(=O)NC2CCCCC2)cc1 (configuration not stated) | inconclusive: 56.2 µM [inhibitor, partial curve] | –

Row | Structure (SMILES) | Potency | activity change, negative = inhibition
53 | CCCCn1c(N)c(N(CCC(C)C)C(=O)COC(=O)c2ccc3ccccc3c2)c(=O)[nH]c1=O | inconclusive: 39.8 µM [inhibitor, single point] | –
54 | COc1ccc(OC)c(CC(NC(C)=O)C(=O)NC2CCN(c3nc(OC)nc(OC)n3)CC2)c1 (configuration not stated) | inactive | –
55 | CCOC(=O)COc1cc(-n2c(=S)[nH]c3cc(OC)c(OC)cc3c2=O)c(Cl)cc1Cl | inconclusive: 39.8 µM [inhibitor, partial curve] | –
56 | Cc1ccc(N2CC(=O)Nc3c(sc4nc(C)cc(C)c34)C2=O)cc1 | inconclusive: 3.16 µM [inhibitor, single point] | –
57 | COc1cc(C(=O)Nc2cc(C)c(O)c(-c3nc4ccccc4s3)c2)cc(OC)c1OC | inactive | –
58 | O=S1(=O)N=C(Oc2ccc(-c3ccccc3)cc2)c2ccccc21 | inconclusive: 89.1 µM [inhibitor, partial curve] | –
59 | CC(C)Oc1ccc(C(=O)NC(=S)Nc2ccc(CN3CCOCC3)cc2)cc1 | inactive | –
60 | CN(C)c1ccc(C(CNC(=O)c2ccc(C#N)cc2)c2c[nH]c3ccccc23)cc1 (configuration not stated) | active: 39.8 µM | –
61 | CC(=O)Oc1ccccc1/C=C/c1ccc2ccccc2[n+]1C | inconclusive: 35.5 µM [inhibitor, partial curve] | –
62 | O=C(NN1C(=O)NC2(CCCCC2)C1=O)c1ccc(Cl)s1 | inconclusive: 39.8 µM [inhibitor, single point] | –
63 | COc1ccc(NC(=O)Cn2c(=O)n(-c3ccc(OC)cc3)c(=O)c3sc4ccccc4c32)cc1 | inactive | –
64 | COc1ccc2cc3cc(C(=O)NCc4ccco4)oc3nc2c1 | inconclusive: 56.2 µM [inhibitor, partial curve] | –
65 | CCc1ccc(NC(=S)Nn2cnnc2)cc1 | active: 79.4 µM | –
66 | N#Cc1cccc(NC(=O)CNc2cc(S(=O)(=O)N3CCOCC3)ccc2N2CCCC2)c1 | inactive | –
67 | COc1cccc(C2=Nn3c(nnc3-c3ccc(OC)cc3OC)SC2)c1 | inactive | –
68 | O=C(CSc1nc2ccccc2c(=O)n1CC1CCCO1)NCc1ccc2c(c1)OCO2 (configuration not stated) | inconclusive: 31.6 µM [inhibitor, full curve] | –
69 | O=S(=O)(Nc1ccc(-n2cccc2)cc1)c1ccc(Cl)cc1Cl | inconclusive: 15.8 µM [inhibitor, full curve] | –
70 | CC1(OC(=O)C2CCCC2)C(=O)C=C2C=C(c3ccsc3)N(CCc3c[nH]c4ccccc34)C=C2C1=O (configuration not stated) | inconclusive: 63.1 µM [inhibitor, partial curve] | –
71 | COc1ccccc1NC(=O)c1cc2cc3ccc(OC)c(Cl)c3nc2s1 | active: 56.2 µM | –
72 | O=C(Nc1ccccc1[N+](=O)[O-])C1C(c2ccccc2)=C1c1ccccc1 | inactive | –
73 | COC(=O)c1c(NC(=O)c2cc(=O)c3cc(C)cc(C)c3o2)sc2c1CCC2 | inactive | –
74 | Cc1nn(C)cc1C(=O)Nc1cc(Oc2ccc(Cl)cc2)cc([N+](=O)[O-])c1 | inconclusive: 22.4 µM [inhibitor, full curve] | –
75 | Cc1ccc(CNC(=O)CCS(=O)(=O)c2ccc(Br)cc2)cc1 | active: 17.8 µM | –
76 | Cc1cccc(-n2c(CNC(=O)c3ccc(S(=O)(=O)N4CCCCC4)cc3)n[nH]c2=S)c1 | active: 35.5 µM | –
77 | Cc1ccc(CC(=O)NCc2nc(-c3ccccc3)no2)cc1 | inactive | –

Source: PubChem BioAssay AID504339 (National Center for Advancing Translational Sciences (NCATS), 2011)
